Experimental data as given in publication PMC4336329 (PLoS ONE, 2015).
About 2,200 (0.71%) of roughly 310,000 compounds showed an effect of 50% or more. Effects have a minus sign here. Some of the results follow.

What follows are compounds tested against human ether-à-go-go-related gene (hERG) potassium channel (human, UniProt Q12809) (assay: primary screen, population patch clamp on CHO cells stably expressing hERG).
human ether-à-go-go-related gene (hERG) potassium channel, sequence (Q12809 whole entry, looked up): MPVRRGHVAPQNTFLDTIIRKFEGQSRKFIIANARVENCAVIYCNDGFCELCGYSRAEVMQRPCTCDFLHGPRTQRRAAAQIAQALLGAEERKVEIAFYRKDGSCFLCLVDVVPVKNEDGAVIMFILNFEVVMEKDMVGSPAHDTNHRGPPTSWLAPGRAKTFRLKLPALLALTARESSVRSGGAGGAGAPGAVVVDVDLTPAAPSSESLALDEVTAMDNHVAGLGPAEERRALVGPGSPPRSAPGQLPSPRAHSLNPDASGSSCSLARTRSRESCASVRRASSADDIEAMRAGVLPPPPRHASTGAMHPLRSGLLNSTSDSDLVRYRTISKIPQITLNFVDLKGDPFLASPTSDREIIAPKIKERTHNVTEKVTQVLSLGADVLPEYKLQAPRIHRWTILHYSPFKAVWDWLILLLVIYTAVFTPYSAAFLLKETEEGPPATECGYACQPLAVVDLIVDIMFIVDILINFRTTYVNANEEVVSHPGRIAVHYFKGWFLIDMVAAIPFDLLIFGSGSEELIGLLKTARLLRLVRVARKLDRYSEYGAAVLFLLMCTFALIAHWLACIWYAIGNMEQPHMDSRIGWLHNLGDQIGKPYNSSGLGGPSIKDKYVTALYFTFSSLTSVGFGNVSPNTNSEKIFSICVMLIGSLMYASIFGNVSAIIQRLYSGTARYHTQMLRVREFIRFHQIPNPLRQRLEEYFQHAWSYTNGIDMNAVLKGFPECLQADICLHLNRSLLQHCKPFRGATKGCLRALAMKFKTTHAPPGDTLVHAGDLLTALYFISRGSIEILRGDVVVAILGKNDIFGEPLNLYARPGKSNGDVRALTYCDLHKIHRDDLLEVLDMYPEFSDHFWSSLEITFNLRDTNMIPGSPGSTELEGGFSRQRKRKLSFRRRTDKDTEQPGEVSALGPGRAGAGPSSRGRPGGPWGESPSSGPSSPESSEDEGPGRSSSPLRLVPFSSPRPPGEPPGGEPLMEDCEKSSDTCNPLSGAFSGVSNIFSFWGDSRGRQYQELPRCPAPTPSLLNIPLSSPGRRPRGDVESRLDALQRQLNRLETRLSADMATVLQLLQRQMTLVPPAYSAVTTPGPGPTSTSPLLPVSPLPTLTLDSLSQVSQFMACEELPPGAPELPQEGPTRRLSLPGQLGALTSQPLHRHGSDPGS

SMILES	hERG current change (%, negative = inhibition) at 1uM [%]
Cc1ccc(S(=O)(=O)NN2C(=O)/C(=C/c3cccc(F)c3)SC2=S)cc1	12.7
CC1=C(C(=O)Nc2ccc(C)cc2)C(c2ccc(N(C)C)cc2)NC(=O)N1 (stereo not shown)	10.8
CCn1nnnc1SCC(=O)NNC(=O)C1CCCCC1	0.727
COc1ccc(OC)c(Cc2nnc(CCC(=O)N3CCN(C4CCCC4)CC3)o2)c1	8.71
O=C(NCC1CCCO1)c1cc2nc(-c3ccco3)cc(C(F)(F)Cl)n2n1 (stereo not shown)	4.95
CCOc1cc(/C=N/NC(=O)c2cccnc2)ccc1OCc1ccc(C(=O)OC)o1	14.1
CCn1cc(Br)c(C(=O)NC(=S)Nc2ccc(C(=O)OC)cc2)n1	4.44
CCc1nc2oc(C(=O)c3ccccc3)c(N)c2c2c1COC(C)(C)C2	7.16
COCCNS(=O)(=O)c1ccc(C2CNC(=O)C2)cc1 (stereo not shown)	11.3
NC(=O)SCC(=O)Nc1ccc(Cl)cc1	15.6
O=S(=O)(NCCCCNS(=O)(=O)c1c(F)cccc1F)c1ccc2c(c1)OCCO2	11
CC(C)(C)n1cccc1/C=C1\C(=O)NC(=O)N(c2ccccc2)C1=O	17.6
Cc1ccc(OC(=O)N2CCOCC2)cc1	13.5
O=C(COc1ccc(F)cc1Cl)Nc1cccc(S(=O)(=O)N2CCCC2)c1	8.43
O=C(Nc1ccnn1C1CCN(C2CCOCC2)CC1)c1cccc(F)c1	1.92
O=C(NCCCSc1ccccc1)c1ccc(=O)[nH]c1	19.6
CCOc1cc(/C=C/c2cc(C(=O)O)c3ccccc3n2)ccc1OC	7.93
COc1cccc2c1CCC(NC(C)=O)C2=O (stereo not shown)	23
CC(=O)Nc1ccc(NC(=O)c2ccc(C3SCC(=O)N3CCc3ccccc3)cc2)cc1 (stereo not shown)	14.2
c1ccc(OCCCn2nnc(-c3ccncc3)n2)cc1	8.23
O=C(c1ccc(F)cc1)N1CCC(C(=O)N2CCN(S(=O)(=O)c3cccc([N+](=O)[O-])c3)CC2)CC1	5.11
O=C(Cn1c(COc2ccccc2)nc2ccccc21)Nc1cc(Cl)c(Cl)cc1Cl	3.53

SMILES	hERG current change (%, negative = inhibition) at 1uM [%]
CNc1ccccc1C(=O)OCC(=O)Nc1ccc2c(c1)OCO2	5.33
Cc1ccc(C(=O)N2CCN(c3ccc(N4CCOCC4)nn3)CC2)cc1C	-10.2
Cc1nc(CS(=O)(=O)c2ccccn2)sc1C(=O)NNC(=O)c1ccccc1	11.5
COCCNC(=O)CCC1CCN(Cc2cccc(Oc3ccccc3)c2)CC1	-27.3
CN1C2C=C(N(C(=O)c3ccc(Cl)cc3)c3ccccc3)CC1CC2.Cl (stereo not shown)	-69.8
COc1ccc(NC(=O)c2ccc(S(=O)(=O)NCc3cccnc3)cc2)cc1	-13.3
CCCN1CCC(=O)N([C@H](CO)c2ccccc2)CC1	9.74
C[C@]12CC[C@@H]3c4ccc(O)cc4CC[C@H]3[C@@H]1CCC2=O	12
O=C(NNC(=O)c1ccc(O)c(Cl)c1)c1cccc(S(=O)(=O)N2CCOCC2)c1	12
COCCCNC(=O)CN(c1cc(C(F)(F)F)ccc1Cl)S(C)(=O)=O	0.758
COc1ccc(/C=C/C(=O)c2ccc(NS(=O)(=O)c3ccc(C)cc3)cc2)cc1O	10.9
CCCCNC(=NCc1cccc(C(F)(F)F)c1)Nc1ccccc1	5.43
COc1cc2c(cc1NC(=O)Nc1cccc(C)c1)oc1ccccc12	6.35
CCC(CC)C(=O)OCC(=O)Nc1cccc(S(=O)(=O)N(C)c2ccccc2)c1	11.5
COc1cc(/C=C2/C(=N)N3C=CSC3=NC2=O)ccc1OCCCOc1ccccc1C	13
Cc1ccc(C(C)C)cc1S(=O)(=O)NC1CC(C)(C)NC(C)(C)C1	0.807
OCCN(Cc1ccccc1)CC1CC2C=CC1C2 (stereo not shown)	-8.4
O=C(Cn1cncn1)NCc1ccc(Cl)cc1	10.2
O=c1[nH]c(=S)n(C2CCCCC2)c(O)c1/C=N/N1CCOCC1	1.45
O=C(C1CCOCC1)N1CCC(CO)(CCc2ccccc2)CC1	6.45
Cc1[nH]c2ccccc2c1/C=C(/C#N)C(=O)NC(C)C	7.69
CCC(NC(=O)C1(C)CC1(Br)Br)c1ccc(C)cc1 (stereo not shown)	7.95

SMILES	hERG current change (%, negative = inhibition) at 1uM [%]
CC(=O)N1CCc2cc(S(=O)(=O)Nc3ccccc3N3CCN(C)CC3)ccc21	3.13
Nc1nc(-c2ccccc2)cc(N2CCCCC2)n1	-8.1
c1ccc(Cc2noc(CN3CCCC(CN4CCOCC4)C3)n2)cc1 (stereo not shown)	5.86
CCOc1ccc(CCNC(=O)C(C)n2nc(C)n3c(cc4occc43)c2=O)cc1OCC (stereo not shown)	10.1
CC(C)CC(=O)Nc1ccccc1N1CCN(C(=O)c2ccccc2)CC1	6.21
O=C(OCC1COc2ccccc2O1)c1ccccc1F (stereo not shown)	1.69
Cc1nn(C)c(Cl)c1C(=O)NCC(=O)Nc1ccc(C(C)C)cc1	5.2
CCCC(=O)Nc1cc(C)c(NC(=O)c2ccco2)cn1	13.7
CC(/C=C/c1ccccc1F)=N\NC(=O)c1cccc(F)c1	13.5
CC(C)(C)c1ccc(OCCC(=O)OCC(=O)Nc2cccnc2Cl)cc1	1.82
C=CCn1c(SCC(=O)NC2CCCC2)nnc1-c1ccncc1	15.3
C=CCOc1nc(N2CCCC2)nc(N2CCCC2)n1	16.1
CCOc1ccc(CCNC(=O)CS(=O)Cc2nc(-c3ccc(C)cc3)oc2C)cc1OCC (stereo not shown)	9.3
CCN(CC(=O)NCc1ccc(Cl)cc1)C(=O)Cc1ccc(OC)cc1	-66.9
NS(=O)(=O)c1ccc(CCNC(=O)CSc2cccs2)cc1	10.6
CC(Sc1nc2cc([N+](=O)[O-])ccc2n1-c1cccc(C(F)(F)F)c1)C(=O)NC(N)=O (stereo not shown)	17.5
CCN1CCCC1CNC(=O)c1ccc(CS(=O)(=O)c2ccccc2C)o1 (stereo not shown)	7.63
CCOC(=O)Cn1c(=O)oc2cc(S(=O)(=O)N(C)c3cccc(C)c3)ccc21	-1.77
CCn1ccnc1CN1CCC(n2nccc2NC(=O)c2ccccc2OC)CC1	-64.9
COc1ccc2ccccc2c1CN1CCN(C(=O)c2ccco2)CC1.O=C(O)C(=O)O	0.376
O=C(Nc1ccccc1N1CCCC1)c1cc(S(=O)(=O)N2CCOCC2)ccc1Cl	-9.58
CN1CCN(C(=O)c2ccc(N3CCCC3=O)cc2)CC1	16.4

SMILES	hERG current change (%, negative = inhibition) at 1uM [%]
Cn1c2ccccc2c(=O)c2cc(C#Cc3cccc(N)c3)ccc21	16
CC(C)n1nc(C(=O)NNC(=O)c2ccncc2)c2ccccc2c1=O	-1.26
O=C(NCCc1ccccc1F)C(=O)Nc1nccs1	9.27
COc1cnn(-c2ccc(F)cc2)c(=O)c1Br	19.5
CN(NS(=O)(=O)c1ccccc1)c1nc2ccccc2nc1C(F)(F)F	15.1
CCn1cc(/C=C(\NC(=O)c2cc(OC)c(OC)c(OC)c2)C(=O)NCCN2CCOCC2)c2ccccc21	6.64
COc1ccc(NC(=S)NCCc2ccccc2OC)c(OC)c1	3.65
Cc1ccc(OCC(=O)Nc2ccc3c(c2)nc2n3CCOC2)cc1	-8.72
CC(=O)Nc1ccc(NS(=O)(=O)c2cc(-c3cnc(C4CC4)o3)ccc2C)cc1	15.5
CCn1c(C)c2c([n+]1CC)CC(C)(C)CC2=O.[I-]	4.67
O=C1CN(C(=O)COc2ccc(Cl)cc2Cl)c2ccccc2N1	20.3
CN(C/N=C(\N)N[N+](=O)[O-])S(=O)(=O)c1ccccc1	12
Cc1ccc(Sc2ncccc2C(=O)NCc2cc([N+](=O)[O-])ccc2O)c(C)c1	16.4
CC(C)C(C(=O)OCC(=O)c1ccccc1)N1C(=O)C2C3C=CC(C3)C2C1=O (stereo not shown)	8.74
CC(=O)Nc1cc(C(=O)N2CCC3(CC2)OCCO3)ccc1S(=O)(=O)c1ccc(C)cc1	4.9
O=C(CN(Cc1ccccc1)C(=O)c1cccc([N+](=O)[O-])c1)Nc1c(Cl)cc(Cl)cc1Cl	3.33
COc1ccc(C(=O)CNC2=NCCC2)cc1.Cl	5.6
O=C(Nc1ccc(Br)cc1)c1ccccc1Br	16.9
COC(=O)c1ccc(NC(=O)C2CC(=O)N(c3ccc(C)cc3)C2)cc1 (stereo not shown)	11
CCc1ccc(NC(=O)c2ccc3nc(N)sc3c2)cc1	2.5
COc1ccc(S(=O)(=O)Nc2ccc(Cc3ccncc3)cc2)cc1OC	7.28
Cn1c(=O)n(CCOc2ccccc2Cl)c2ccccc21	-10.5
